The values below come from patent US11865359B2, “Tumor imaging with x-rays and other high energy sources using as contrast agents photon-emitting phosphors having therapeutic properties” (IMMUNOLIGHT, LLC., priority 2014, dated 2024).

The test system of this assay is 4T1-Her2 breast cancer cells. Description: Annexin V flow cytometry apoptosis assay, 1Gy 80kVp x-ray. To be noted: cells with both energy modulation agents and psoralen, 1Gy x-ray at 80kVp. (In general: A flow cytometer gives signals particle by particle.)

For `O=c1ccc2cc3ccoc3cc2o1` [psoralen], the apoptosis entry is “statistically significant (p<0.001) increase in apoptosis”.
